From patent EP4574844A1 (Numab Therapeutics AG, dated 2025)

Legend:
[1] = molecular target: human PD-L1 on the cell surface (human, UniProt Q9NZQ7); assay: cell-based or functional assay
[2] = molecular target: human CD47 on the cell surface (human, UniProt Q08722); assay: cell-based or functional assay

UniProt Q9NZQ7, sequence (Q9NZQ7 19-290): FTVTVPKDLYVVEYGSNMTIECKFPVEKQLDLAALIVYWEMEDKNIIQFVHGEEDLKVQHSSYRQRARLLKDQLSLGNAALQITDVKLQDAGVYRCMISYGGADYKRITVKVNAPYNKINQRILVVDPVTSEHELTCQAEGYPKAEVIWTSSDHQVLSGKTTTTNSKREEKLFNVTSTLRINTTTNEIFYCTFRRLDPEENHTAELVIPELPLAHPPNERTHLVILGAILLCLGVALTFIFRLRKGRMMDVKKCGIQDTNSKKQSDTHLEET

Binder	PD-L1 driven EC50 [nM], phagocytosis of H292 cells [1]	CD47 driven EC50 [nM], phagocytosis of H292 cells [2]	CD47 driven EC50 [nM], phagocytosis of RBCs [2]
PRO4711 (antibody, human IgG1, lambda) DIQMTQSPASLSASVGDRVTITCQASQSIGTYLAWYQQKPGKPPKLLIYRAFILASGVPSRFSGSGSGTDFTLTISSLQPEDFATYYCQSNFYSDSTTIGPNAFGTGTKVTVLGGGGGSGGGGSGGGGSGGGGSEVQLVESGGGLVQPGGSLRLSCAASGFSFNSDYWIYWVRQAPGKGLEWIASIYGGSSGNTQYASWAQGRFTISRDNSKNTVYLQMNSLRAEDTAVYFCARGYVDYGGATDLWGQGTLVTVSS[letters of human IgG1 Fc with changes left out]GGGGSGGGGSDVQMTQSPSSLSASVGDRVTITCQASQSIGSNLAWYQQKPGKPPKLLIYKASTLESGVPSRFSGSGSGTDFTLTISSLQPEDFATYYCQSTAGSSRSGNYGYVFGCGTKVTVLGGGGGSGGGGSGGGGSGGGGSQQLVESGGGRVQPGGSLRLSCAASGFSFTNNYYMCWVRQAPGKCLEWIACMLVGAWGNTYYASWANGRFTISKDNSKNTVYLQMNSLRAEDTATYFCARARDYTWTLGGDPETSGFNLWGQGTQVTVSS heavy: QVQLVQSGAEVKKPGSSVKVSCKASGYTFSSYAISWVRQAPGQGLEWMGGISPIFGTANYAQKFQGRVTITADESTSTAYMELSSLRSEDTAVYYCARDAGRSSDVGWYVGAIDVWGQGTLVTVSSASTKGPSVFPLAPSSKSTSGGTAALGCLVKDYFPEPVTVSWNSGALTSGVHTFPAVLQSSGLYSLSSVVTVPSSSLGTQTYICNVNHKPSNTKVDKKVEPKSCDKTHTCPPCPAPELLGGPSVFLFPPKPKDTLMISRTPEVTCVVVDVSHEDPEVKFNWYVDGVEVHNAKTKPREEQYNSTYRVVSVLTVLHQDWLNGKEYKCKVSNKALPAPIEKTISKAKGQPREPQVYTLPPCREEMTKNQVSLSCAVKGFYPSDIAVEWESNGQPENNYKTTPPVLDSDGSFFLVSKLTVDKSRWQQGNVFSCSVMHEALHNHYTQKSLSLSPGKGGGGSGGGGSDVQMTQSPSSLSASVGDRVTITCQASQSIGSNLAWYQQKPGKPPKLLIYKASTLESGVPSRFSGSGSGTDFTLTISSLQPEDFATYYCQSTAGSSRSGNYGYVFGCGTKVTVLGGGGGSGGGGSGGGGSGGGGSQQLVESGGGRVQPGGSLRLSCAASGFSFTNNYYMCWVRQAPGKCLEWIACMLVGAWGNTYYASWANGRFTISKDNSKNTVYLQMNSLRAEDTATYFCARARDYTWTLGGDPETSGFNLWGQGTQVTVSS light: QSVLTQPPSASGTPGQRVTISCSGSSSNIGSNYVYWYQQLPGTAPKLLIYRNNQRPSGVPDRFSGSKSGTSASLAISGLRSEDEADYYCAAWDDSLSGVVFGGGTKLTVLGQPKAAPSVTLFPPSSEELQANKATLVCLISDFYPGAVTVAWKADSSPVKAGVETTTPSKQSNNKYAASSYLSLTPEQWKSHRSYSCQVTHEGSTVEKTVAPTECS	0.11 nM	6.76 nM	6.25 nM
PRO3843 (antibody, human IgG1, lambda) heavy 1: QVQLVQSGAEVKKPGSSVKVSCKASGYTFSSYAISWVRQAPGQGLEWMGGISPIFGTANYAQKFQGRVTITADESTSTAYMELSSLRSEDTAVYYCARDAGRSSDVGWYVGAIDVWGQGTLVTVSSASTKGPSVFPLAPSSKSTSGGTAALGCLVKDYFPEPVTVSWNSGALTSGVHTFPAVLQSSGLYSLSSVVTVPSSSLGTQTYICNVNHKPSNTKVDKKVEPKSCDKTHTCPPCPAPELLGGPSVFLFPPKPKDTLMISRTPEVTCVVVDVSHEDPEVKFNWYVDGVEVHNAKTKPREEQYNSTYRVVSVLTVLHQDWLNGKEYKCKVSNKALPAPIEKTISKAKGQPREPQVYTLPPCREEMTKNQVSLSCAVKGFYPSDIAVEWESNGQPENNYKTTPPVLDSDGSFFLVSKLTVDKSRWQQGNVFSCSVMHEALHNHYTQKSLSLSPGKGGGGSGGGGSDVQMTQSPSSLSASVGDRVTITCQASQSIGSNLAWYQQKPGKPPKLLIYKASTLESGVPSRFSGSGSGTDFTLTISSLQPEDFATYYCQSTAGSSRSGNYGYVFGCGTKVTVLGGGGGSGGGGSGGGGSGGGGSQQLVESGGGRVQPGGSLRLSCAASGFSFTNNYYMCWVRQAPGKCLEWIACMLVGAWGNTYYASWANGRFTISKDNSKNTVYLQMNSLRAEDTATYFCARARDYTWTLGGDPETSGFNLWGQGTQVTVSS heavy 2: EVQLVESGGGLVKPGGSLRLSCAASGFTFSNAWMNWVRQAPGKGLEWVGRIKTKADGGTTDYAAPVKGRFTISRDDSKNTLYLQMNSLKTEDTAVYYCTTDPGEYWDSVYGGMDYWGQGTLVTVSSASTKGPSVFPLAPSSKSTSGGTAALGCLVKDYFPEPVTVSWNSGALTSGVHTFPAVLQSSGLYSLSSVVTVPSSSLGTQTYICNVNHKPSNTKVDKKV[letters of human IgG1 Fc with changes left out]GGGGSGGGGSDVQMTQSPSSLSASVGDRVTITCQASQSIGSNLAWYQQKPGKPPKLLIYKASTLESGVPSRFSGSGSGTDFTLTISSLQPEDFATYYCQSTAGSSRSGNYGYVFGCGTKVTVLGGGGGSGGGGSGGGGSGGGGSQQLVESGGGRVQPGGSLRLSCAASGFSFTNNYYMCWVRQAPGKCLEWIACMLVGAWGNTYYASWANGRFTISKDNSKNTVYLQMNSLRAEDTATYFCARARDYTWTLGGDPETSGFNLWGQGTQVTVSS light: QSVLTQPPSASGTPGQRVTISCSGSSSNIGSNYVYWYQQLPGTAPKLLIYRNNQRPSGVPDRFSGSKSGTSASLAISGLRSEDEADYYCAAWDDSLSGVVFGGGTKLTVLGQPKAAPSVTLFPPSSEELQANKATLVCLISDFYPGAVTVAWKADSSPVKAGVETTTPSKQSNNKYAASSYLSLTPEQWKSHRSYSCQVTHEGSTVEKTVAPTECS	0.08 nM	10.2 nM	10.4 nM
